The text below walks through data of article PMC12820563, “FoxP3 forms a head-to-head dimer in vivo and stabilizes its multimerization on adjacent microsatellites”.

The other results are listed elsewhere or left out.

The target of the assay is T1, MBP-FoxP1dN (Mus musculus, UniProt P58462 326-579).
T1 sequence: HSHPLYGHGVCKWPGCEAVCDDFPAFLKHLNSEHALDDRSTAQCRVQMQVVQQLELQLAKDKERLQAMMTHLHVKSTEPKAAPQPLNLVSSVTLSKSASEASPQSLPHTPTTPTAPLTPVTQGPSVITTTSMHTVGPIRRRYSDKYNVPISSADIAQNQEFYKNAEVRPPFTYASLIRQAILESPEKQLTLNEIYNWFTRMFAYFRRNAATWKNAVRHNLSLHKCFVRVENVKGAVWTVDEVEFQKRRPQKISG
The assay is described as follows: PD-seq (MBP pull-down with sequencing); 20 mM Tris-HCl pH 7.5, 100 mM NaCl, 1.5 mM MgCl2, 0.4 uM protein, 0.1 uM dsDNA library, 30 min, room temperature, amylose pull-down; high values mean tight binding. The note with it: protein: recombinant; tags: His6-MBP; chain copies: 2; dsDNA, one strand shown. The method, boiled down:
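Binding is reads-per-million enrichment of pull-down over input, with replicates pooled. It comes from 30 min room-temperature incubation in Tris pH 7.5 buffer with NaCl and MgCl2 of 0.4 µM His6-MBP-tagged, N-terminally truncated mouse FoxP3 or FoxP1 fragment from E. coli with 0.1 µM Klenow-filled degenerate double-stranded DNA library, followed by amylose resin capture, three washes and Illumina sequencing of the released DNA.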
Regarding “GATGATTGTTCTCCCAGCTGATGAATTTCATGAATCGAGTAAACAAATTTTCCTAATCTTTCTGTTCAAGCGCCATCTAC”, the binding signal was 0.896 RPM ratio (pull-down/input).
In the case of “GATGATTGTTCTCCCAGCTGATGAATTCCGTTGCTCGAGTAAACAAATTTTCCTAATCTTTCTGTTCAAGCGCCATCTAC” it was 0.893 RPM ratio (pull-down/input); in that of “GATGATTGTTCTCCCAGCTGATGAATTCTAACTATCGAGTAAACAAATTTTCCTAATCTTTCTGTTCAAGCGCCATCTAC”, 0.944 RPM ratio (pull-down/input); in that of “GATGATTGTTCTCCCAGCTGATGAATTAAGATATTCGAGTAAACAAATTTTCCTAATCTTTCTGTTCAAGCGCCATCTAC”, 0.895 RPM ratio (pull-down/input).
“GATGATTGTTCTCCCAGCTGATGAATTAGGTCAGTCGAGTAAACAAATTTTCCTAATCTTTCTGTTCAAGCGCCATCTAC”: the binding signal is 0.788 RPM ratio (pull-down/input).
For “GATGATTGTTCTCCCAGCTGATGAATTTCAGGACTCGAGTAAACAAATTTTCCTAATCTTTCTGTTCAAGCGCCATCTAC”, the binding signal was 0.771 RPM ratio (pull-down/input).
Consider “GATGATTGTTCTCCCAGCTGATGAATTAATATGGTCGAGTAAACAAATTTTCCTAATCTTTCTGTTCAAGCGCCATCTAC”, for which the binding signal was 0.915 RPM ratio (pull-down/input).
In the case of “GATGATTGTTCTCCCAGCTGATGAATTGACGTGGTCGAGTAAACAAATTTTCCTAATCTTTCTGTTCAAGCGCCATCTAC” it was 1.08 RPM ratio (pull-down/input); in that of “GATGATTGTTCTCCCAGCTGATGAATTCACAATCTCGAGTAAACAAATTTTCCTAATCTTTCTGTTCAAGCGCCATCTAC”, 0.968 RPM ratio (pull-down/input); in that of “GATGATTGTTCTCCCAGCTGATGAATTCGGAGACTCGAGTAAACAAATTTTCCTAATCTTTCTGTTCAAGCGCCATCTAC”, 0.809 RPM ratio (pull-down/input).
In the case of “GATGATTGTTCTCCCAGCTGATGAATTAAGCGGATCGAGTAAACAAATTTTCCTAATCTTTCTGTTCAAGCGCCATCTAC” it was 0.948 RPM ratio (pull-down/input).
“GATGATTGTTCTCCCAGCTGATGAATTGTAAGACTCGAGTAAACAAATTTTCCTAATCTTTCTGTTCAAGCGCCATCTAC”: the binding signal was 0.981 RPM ratio (pull-down/input).
As for “GATGATTGTTCTCCCAGCTGATGAATTGTGCCTGTCGAGTAAACAAATTTTCCTAATCTTTCTGTTCAAGCGCCATCTAC”, the binding signal is 0.964 RPM ratio (pull-down/input).
In the case of “GATGATTGTTCTCCCAGCTGATGAATTCGATAGGTCGAGTAAACAAATTTTCCTAATCTTTCTGTTCAAGCGCCATCTAC” it was 0.706 RPM ratio (pull-down/input); in that of “GATGATTGTTCTCCCAGCTGATGAATTCTTCTTTTCGAGTAAACAAATTTTCCTAATCTTTCTGTTCAAGCGCCATCTAC”, 0.979 RPM ratio (pull-down/input).
With “GATGATTGTTCTCCCAGCTGATGAATTTAGTGACTCGAGTAAACAAATTTTCCTAATCTTTCTGTTCAAGCGCCATCTAC”, the binding signal was 0.965 RPM ratio (pull-down/input).
On to “GATGATTGTTCTCCCAGCTGATGAATTCGGCCCATCGAGTAAACAAATTTTCCTAATCTTTCTGTTCAAGCGCCATCTAC”, for which the binding signal was 0.771 RPM ratio (pull-down/input).
The same measure for “GATGATTGTTCTCCCAGCTGATGAATTTGCGTACTCGAGTAAACAAATTTTCCTAATCTTTCTGTTCAAGCGCCATCTAC”: 1.15 RPM ratio (pull-down/input).
The same measure for “GATGATTGTTCTCCCAGCTGATGAATTGAAACCCTCGAGTAAACAAATTTTCCTAATCTTTCTGTTCAAGCGCCATCTAC”: 0.809 RPM ratio (pull-down/input).
In the case of “GATGATTGTTCTCCCAGCTGATGAATTGAGAGTGTCGAGTAAACAAATTTTCCTAATCTTTCTGTTCAAGCGCCATCTAC” it was 0.885 RPM ratio (pull-down/input).
For the sequence “GATGATTGTTCTCCCAGCTGATGAATTCATCCAGTCGAGTAAACAAATTTTCCTAATCTTTCTGTTCAAGCGCCATCTAC”, the binding signal is 0.813 RPM ratio (pull-down/input).
In the case of “GATGATTGTTCTCCCAGCTGATGAATTGTGCTTGTCGAGTAAACAAATTTTCCTAATCTTTCTGTTCAAGCGCCATCTAC” it was 1.35 RPM ratio (pull-down/input); in that of “GATGATTGTTCTCCCAGCTGATGAATTGGGCGCATCGAGTAAACAAATTTTCCTAATCTTTCTGTTCAAGCGCCATCTAC”, 1.2 RPM ratio (pull-down/input); in that of “GATGATTGTTCTCCCAGCTGATGAATTTAGTGATTCGAGTAAACAAATTTTCCTAATCTTTCTGTTCAAGCGCCATCTAC”, 0.949 RPM ratio (pull-down/input).
In the case of “GATGATTGTTCTCCCAGCTGATGAATTACAGGTGTCGAGTAAACAAATTTTCCTAATCTTTCTGTTCAAGCGCCATCTAC” it was 1.07 RPM ratio (pull-down/input); in that of “GATGATTGTTCTCCCAGCTGATGAATTCGCAGATTCGAGTAAACAAATTTTCCTAATCTTTCTGTTCAAGCGCCATCTAC”, 0.831 RPM ratio (pull-down/input).
The same measure for “GATGATTGTTCTCCCAGCTGATGAATTACGTTGCTCGAGTAAACAAATTTTCCTAATCTTTCTGTTCAAGCGCCATCTAC”: 1.13 RPM ratio (pull-down/input); for “GATGATTGTTCTCCCAGCTGATGAATTAAATCTTTCGAGTAAACAAATTTTCCTAATCTTTCTGTTCAAGCGCCATCTAC”: 0.941 RPM ratio (pull-down/input).
For the sequence “GATGATTGTTCTCCCAGCTGATGAATTACCGGCCTCGAGTAAACAAATTTTCCTAATCTTTCTGTTCAAGCGCCATCTAC”, the binding signal was 0.877 RPM ratio (pull-down/input).
In the case of “GATGATTGTTCTCCCAGCTGATGAATTAAATCCATCGAGTAAACAAATTTTCCTAATCTTTCTGTTCAAGCGCCATCTAC” it was 0.894 RPM ratio (pull-down/input); in that of “GATGATTGTTCTCCCAGCTGATGAATTACATCCATCGAGTAAACAAATTTTCCTAATCTTTCTGTTCAAGCGCCATCTAC”, 1.12 RPM ratio (pull-down/input); in that of “GATGATTGTTCTCCCAGCTGATGAATTCTGAGGATCGAGTAAACAAATTTTCCTAATCTTTCTGTTCAAGCGCCATCTAC”, 0.866 RPM ratio (pull-down/input).
